# Assay results reported in PubChem BioAssay AID588453 (National Center for Advancing Translational Sciences (NCATS), 2011).
# “And” between values parts separate entries of the source, which are not always exact repeats. Identical values can stand only once. Hit rate of the full screen: of about 390,000 compounds, about 4,000 (1%) were called active. Inconclusive results, whose numbers are uncertain, are shown with a selection of clear calls. Calls follow the shape of the dose curve; as a rule, active = well fitted inhibition curve with a large enough effect; inconclusive = small, poorly fitted or top-dose-only effect; inactive = no such curve, though single readings can be large or run the other way. Potencies beside an inconclusive call are fits to weak or partial responses and may not hold up.
# Target: Thioredoxin reductase 1, cytoplasmic (Rattus norvegicus) (UniProt O89049)
# Assay: qHTS Assay for Inhibitors of Mammalian Selenoprotein Thioredoxin Reductase 1 (TrxR1): qHTS; also: nearly all actives have a fitted effect of over 65% in size
# Conditions: recombinant rTrxR1, NADPH fluorescence consumption, selenite substrate; series mostly up to 114 µM; activity change, negative = inhibition: at the top concentration
# Outline: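 Rat TrxR1 (90 nM in the dispensed reagent) was pre-reduced with 400 uM NADPH for 5 min at room temperature, then incubated with compound for 15 min. After 400 uM selenite was added, NADPH fluorescence (Ex 340/Em 450 nm) was followed for 8 min.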
# % is scaled to controls: 0 for no effect and ±100 for the full control effect; potency is read from the fitted curve at half-maximal effect; tags tell the direction and shape of the fitted curve.
# UniProt O89049, sequence (O89049 whole entry, looked up): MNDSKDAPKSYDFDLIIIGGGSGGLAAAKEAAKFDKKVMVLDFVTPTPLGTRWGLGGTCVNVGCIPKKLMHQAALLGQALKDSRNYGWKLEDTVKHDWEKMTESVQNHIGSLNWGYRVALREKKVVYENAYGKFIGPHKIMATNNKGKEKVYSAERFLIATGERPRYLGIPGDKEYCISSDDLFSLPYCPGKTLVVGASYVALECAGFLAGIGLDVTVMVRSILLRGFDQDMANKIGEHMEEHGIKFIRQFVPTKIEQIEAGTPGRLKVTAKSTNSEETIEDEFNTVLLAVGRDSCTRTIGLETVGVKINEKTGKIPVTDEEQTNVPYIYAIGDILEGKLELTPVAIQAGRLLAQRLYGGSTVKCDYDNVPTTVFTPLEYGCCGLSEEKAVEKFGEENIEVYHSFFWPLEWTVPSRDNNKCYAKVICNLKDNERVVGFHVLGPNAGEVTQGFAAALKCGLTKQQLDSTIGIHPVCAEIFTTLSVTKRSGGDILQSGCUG
SMILES,"activity change, negative = inhibition",Potency
COC(=O)c1c(NS(=O)(=O)c2ccccc2)csc1C,inactive: -2.07% [at 57.1 µM],
CCOc1cccc(/C(O)=C2/C(=O)C(=O)N(Cc3ccco3)C2c2ccncc2)c1 (centres undefined),,"inconclusive: 63.1 µM [inhibitor, single point]"
CCOC(=O)N1CCN(C(=O)Nc2ccc3oc(C)nc3c2)CC1,,"inconclusive: 70.8 µM [inhibitor, single point]"
NNC(=O)c1cccc(S(=O)(=O)Nc2cccc(C(F)(F)F)c2)c1,inactive: 23.5%,
CCn1cc(C(=O)N2CCN(c3cccc(Cl)c3)CC2)c(=O)c2cc(S(=O)(=O)N3CCC(C)CC3)ccc21,inactive: 15.5%,
COCCn1c(C)cc(/C=C2\NC(=S)N(C)C2=O)c1C,,"inconclusive: 70.8 µM [inhibitor, single point]"
CCOc1c(C=C(C#N)C#N)c2ccccc2n1CC,,"inconclusive: 50.1 µM [inhibitor, partial curve, poor fit]"
CCOC(=O)C(CC)N1CCN(Cc2ccc(F)cc2)C(=O)C1=O (centres undefined),inactive: 15.4% [at 57.1 µM],
NS(=O)(=O)c1ccc(N=Nc2nc3[nH]cnc(=S)c3[nH]2)cc1,,"inconclusive: 35.5 µM [inhibitor, partial curve]"
CN(Cc1ccc(Cl)s1)C(=O)CCl,,"inconclusive: 8.91 µM [inhibitor, full curve, poor fit]"
O=C(O)CCCC(=O)Nc1nc2n(n1)C(c1ccc(F)cc1)CC(c1ccc(Cl)cc1)N2 (centres undefined),,"inconclusive: 89.1 µM [inhibitor, single point]"
Cc1ccccc1C(=O)NCC(=O)NNC(=S)NC(=O)c1ccccc1,,"inconclusive: 11.2 µM [inhibitor, full curve, poor fit]"
CC(=O)Nc1ccc(S(=O)(=O)NCCC(=O)OCC(=O)c2ccc(Br)cc2)cc1,,"inconclusive: 56.2 µM [inhibitor, partial curve]"
Cc1ccc(NC(=O)CN2C(=O)N/C(=C/c3ccc(C)s3)C2=O)cc1,,"inconclusive: 70.8 µM [inhibitor, partial curve]"
O=C(NC(=S)Nc1ccccc1)c1csnn1,,"inconclusive: 14.1 µM [inhibitor, full curve]"
COc1ccc(NC(=S)Nc2ncccc2C)c(OC)c1,,active: 1.78 µM
N#Cc1c(C(F)(F)F)cc(-c2cccs2)nc1SCc1ccc(Cl)nc1,,active: 50.1 µM
COc1cccc(N(C(=O)CNC(=O)c2ccco2)C(C(=O)NC2CCCCC2)c2cccnc2)c1 (centres undefined),,"inconclusive: 89.1 µM [inhibitor, single point]"
CS(=O)(=O)Nc1ccc(C2=NN(S(C)(=O)=O)C(c3ccc4c(c3)OCO4)C2)cc1 (centres undefined),,"inconclusive: 89.1 µM [inhibitor, single point]"
COc1cccc(C2C(C(=O)c3cc4ccccc4o3)=C(O)C(=O)N2CCN2CCOCC2)c1 (centres undefined),,"inconclusive: 12.6 µM [inhibitor, partial curve, poor fit]"
CC(/C=C/c1ccccc1)=N\Nc1nc(C)cc(C)n1,inactive: -1.26%,
COc1ccc(NC(=O)CCN2CC(C)OC(C)C2)c(OC)c1 (centres undefined),,"inconclusive: 35.5 µM [inhibitor, single point]"

SMILES,"activity change, negative = inhibition",Potency
CC(C)c1ccc(Nc2nnc(SCC(=O)Nc3ncc(S(=O)(=O)c4ccc([N+](=O)[O-])cc4)s3)s2)cc1,,"inconclusive: 50.1 µM [inhibitor, partial curve, poor fit]"
N#C/C(=C/c1ccc(N2CCCCCC2)o1)c1cccc(F)c1,,"inconclusive: 3.16 µM [inhibitor, full curve, poor fit]"
CC(C)(C)c1ccc(OCCC(=O)OCC(=O)Nc2cccnc2Cl)cc1,,"inconclusive: 70.8 µM [inhibitor, partial curve, poor fit]"
N#CCC(=O)N/N=C/c1ccc(N2N=C(c3ccccc3)CC2c2ccccc2)cc1 (centres undefined),,"inconclusive: 39.8 µM [inhibitor, single point]"
Cc1ccc(C(C)NC(=O)Cc2cccs2)cc1C (centres undefined),inactive: 7.24%,
O=C(Nc1ccccc1Cl)[C@H](CSCc1ccccc1)N1Cc2ccccc2C1=O,inactive: 10.9%,
COc1ccccc1CNC(=O)CCS(=O)(=O)c1cccc2nonc12,,"inconclusive: 35.5 µM [inhibitor, partial curve, poor fit]"
O=C1NCC(COCc2ccco2)O1 (centres undefined),,"inconclusive: 20 µM [inhibitor, full curve]"
CC(=O)Nc1ccc(/C=C/c2sc3ccccc3[n+]2CCCCI)cc1,,"inconclusive: 10 µM [inhibitor, partial curve, poor fit]"
COc1ccc(NC(C)=O)c([N+](=O)[O-])c1[N+](=O)[O-],,active: 5.01 µM
C#CCOCCOCCOCCNc1nc(N2CCN(C(=O)CCCCCCCCCCNC(=O)[C@@H](CCSC)n3cc(CCO)nn3)CC2)nc(N2CCN(C(=O)CCCCCCCCCCNC(=O)[C@H](CCCN=C(N)N)n3cc(C[C@@H](C)CC)nn3)CC2)n1,,"inconclusive: 56.2 µM [inhibitor, partial curve, poor fit]"
CCc1nn(CC(=O)NCc2ccco2)c(=O)c2cc3c(OC)cccc3n12,inactive: 6.12%,
Cc1onc(-c2ccccc2)c1C(=O)NNC(=S)NC(=O)/C=C/c1cccs1,,"inconclusive: 15.8 µM [inhibitor, full curve]"
O=c1c(C/C=C/c2ccccc2)c(O)nc2n1CCCS2,,"inconclusive: 79.4 µM [inhibitor, single point]"
N#Cc1ccccc1NC(=O)CSc1n[nH]c(-c2ccco2)n1,,"inconclusive: 35.5 µM [inhibitor, partial curve]"
Cc1ccnc(SCc2cc(=O)c(OC(=O)c3ccc(Cl)c([N+](=O)[O-])c3)co2)n1,,"inconclusive: 63.1 µM [inhibitor, single point]"
CCOc1ccccc1NC(=S)N1CCN(c2cccc(OC)c2)CC1,inactive: 12.1%,
Cc1ccc(C)c(S(=O)(=O)N2CCN(Cc3cc4c(cc3O)OCO4)CC2)c1,,"inconclusive: 15.8 µM [inhibitor, partial curve]"
C=C1C(=O)O[C@@H]2[C@H]1[C@@H](OC(=O)/C(C)=C/C)C/C(C)=C\C(=O)/C=C(\C)[C@@H]2O,,"inconclusive: 17.8 µM [inhibitor, partial curve, poor fit]"
Cc1cc(C(=O)COC(=O)/C=C/c2ccco2)c(C)n1C,,"inconclusive: 15.8 µM [inhibitor, full curve]"
O=C(NC(=S)Nc1cccc(Cl)c1Cl)C1CC1,,"inconclusive: 50.1 µM [inhibitor, partial curve]"
Cc1ccc(-c2n[nH]c(=S)n2/N=C/c2cccn2C)cc1,,"inconclusive: 39.8 µM [inhibitor, partial curve, poor fit]"

SMILES,"activity change, negative = inhibition",Potency
Cc1cccc(C)c1OCCOC(=O)c1n[nH]c2ccccc12,inactive: -7.36%,
CCN(CC(=O)Nc1cc(Cl)ccc1OC)CC(=O)NC1CCS(=O)(=O)C1 (centres undefined),inactive: 14.3%,
Cc1cccc(CS(=O)(=O)c2ncc(Cl)c(C(=O)Nc3nnc(C(C)C)s3)n2)c1,,active: 7.08 µM and active: 25.1 µM
COc1ccc2c(c1)CCc1c(C(=O)N3CC4(C)CC3CC(C)(C)C4)noc1-2 (centres undefined),,"inconclusive: 35.5 µM [inhibitor, partial curve]"
COc1cc([N+](=O)[O-])c(OC)cc1SCc1n[nH]c(=S)n1-c1ccc(C)cc1,,"inconclusive: 20 µM [inhibitor, partial curve, poor fit]"
CC/C(=C\c1oc2cc3ccccc3cc2[n+]1CC)Nc1ccccc1,,"inconclusive: 22.4 µM [inhibitor, single point]"
COC(=O)c1cccc(Cn2c(Cl)c(/C=N/NC(=O)c3ccccc3Cl)sc2=O)c1,,"inconclusive: 56.2 µM [inhibitor, partial curve, poor fit]"
O=C(COCc1cc(-c2cccs2)on1)N1CCN(c2ccccc2)CC1,inactive: -6.95%,
CCn1c(SCC(=O)NNC(=S)Nc2ccc(C)cc2)nnc1-c1ccc(Cl)cc1,,"inconclusive: 3.98 µM [inhibitor, partial curve, poor fit]"
CC(C)OC(=O)CSc1nc(Cc2ccccc2)nc2ccccc12,,"inconclusive: 31.6 µM [inhibitor, partial curve, poor fit]"
Cc1cccc(NC(=O)c2nc[nH]c2C(=O)N2CCN(C(=O)OC(C)(C)C)CC2)c1,,"inconclusive: 79.4 µM [inhibitor, partial curve]"
Cc1ccc(NC(=S)Nc2ccc(Cl)c(Cl)c2)c(OC(F)F)c1,,"inconclusive: 28.2 µM [inhibitor, partial curve]"
CC(C)c1ccc(NC(=O)CCCN2C(=S)NC(C)(C)CC2C)cc1 (centres undefined),inactive: 1.46%,
Cc1ccc(S(=O)(=O)CC(=O)c2ccc3c(c2)OCCO3)cc1,,"inconclusive: 50.1 µM [inhibitor, partial curve]"
COc1cc(C2CC(=O)Nc3ccccc3S2)cc(OC)c1OC (centres undefined),inactive: 12%,
C=CCNc1nc(N)c(C(=C(C#N)C#N)c2ccccc2)s1,,"inconclusive: 28.2 µM [inhibitor, single point]"
O=C(NCc1cccnc1)c1cc(-c2ccco2)on1,,"inconclusive: 50.1 µM [inhibitor, single point]"
CCOC(=O)c1cnc(Nc2nc3ccccc3o2)nc1CN1CCN(C)CC1,,"inconclusive: 10 µM [inhibitor, full curve, poor fit]"
COc1cc2nc(CN(CCC(C)C)Cc3nc4cc(OC)c(OC)cc4c(=O)[nH]3)[nH]c(=O)c2cc1OC,inactive: 2.48% [at 57.1 µM],
CCn1c(C)c(C)c2cc(C(=O)NCCCN3CCCCCC3)ccc21,,"inconclusive: 70.8 µM [inhibitor, single point]"
